Laboratory results reported in the supplement of paper PMC4967469.
By IC50 is meant the dose at which the fit gives 50% viability; a limit (>, <) means that the fit lies beyond the doses tested. AUC, from the same fit, is the share of area under the viability curve across the 256-fold dose range; it is 1 without any effect and falls as sensitivity rises. For some of these results: Any top dose called inferred comes from the curve model; the source does not state it.

Legend:
Assay in all cases: Viability of human cancer cell lines after 72 h of drug (GDSC screen)
STF-62247 = compound: Cc1cccc(Nc2nc(-c3ccncc3)cs2)c1 [STF-62247]; settings: top dose 10.24 µM; top dose inferred
Protocol: (§1)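 Human cancer cell lines in 384-well plates, medium with 10% serum, drug for 72 h over a 256-fold dose range (nine 2-fold or five 4-fold steps up to the top dose). Adherent lines were fixed and stained with the nucleic acid dye Syto60, suspension lines read with resazurin; signal relative to control wells, capped at 0 and 100%. One two-parameter sigmoid per drug and line, fitted in a mixed model over all curves with the slope shared within a line.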

CX-5461 = compound: Cc1cnc(CNC(=O)c2c(=O)c3ccc(N4CCCN(C)CC4)nc3n3c2sc2ccccc23)cn1 [CX-5461]; settings: top dose 10.24 µM; top dose inferred
Protocol: as §1

CP724714 = compound: COCC(=O)NC/C=C/c1ccc2ncnc(Nc3ccc(Oc4ccc(C)nc4)c(C)c3)c2c1 [CP724714]; settings: top dose 10.24 µM; top dose inferred
Protocol: as §1

ZSTK474 = compound: FC(F)c1nc2ccccc2n1-c1nc(N2CCOCC2)nc(N2CCOCC2)n1 [ZSTK474]
Protocol: as §1

Cell Line	AUC (STF-62247)	IC50 (STF-62247)	AUC (CX-5461)	IC50 (CX-5461)	AUC (CP724714)	IC50 (CP724714)	AUC (ZSTK474)	IC50 (ZSTK474)
CADO-ES1 (Ewing sarcoma, suspension)	0.988	> 10.2 µM	0.642	1.59 µM	0.974	> 10.2 µM	–	–
CHP-134 (neuroblastoma, suspension)	0.979	> 10.2 µM	0.317	0.17 µM	0.98	> 10.2 µM	–	–
CHSA8926 (chondrosarcoma, adherent)	0.979	> 10.2 µM	0.98	> 10.2 µM	0.97	> 10.2 µM	–	–
COR-L303 (small cell lung carcinoma, suspension)	0.938	> 10.2 µM	0.932	> 10.2 µM	0.987	> 10.2 µM	–	–
COR-L321 (lung, suspension)	0.976	> 10.2 µM	0.896	> 10.2 µM	0.987	> 10.2 µM	–	–
D-423MG (glioma, adherent)	0.958	> 10.2 µM	0.88	> 10.2 µM	0.935	> 10.2 µM	–	–
D-566MG (glioma, adherent)	0.972	> 10.2 µM	0.786	4.35 µM	0.984	> 10.2 µM	–	–
DOV13 (ovary, adherent)	0.966	> 10.2 µM	0.868	> 10.2 µM	0.978	> 10.2 µM	–	–
EMC-BAC-1 (lung adenocarcinoma, adherent)	0.849	9.37 µM	0.899	> 10.2 µM	0.892	> 10.2 µM	–	–
EMC-BAC-2 (lung adenocarcinoma, adherent)	0.981	> 10.2 µM	0.91	> 10.2 µM	0.967	> 10.2 µM	–	–
ESO26 (oesophagus, adherent)	0.989	> 10.2 µM	0.569	0.978 µM	0.75	3.17 µM	–	–
ESO51 (oesophagus, semi-adherent)	0.937	> 10.2 µM	0.754	4.78 µM	0.965	> 10.2 µM	–	–
FLO-1 (oesophagus, adherent)	0.963	> 10.2 µM	0.936	> 10.2 µM	0.958	> 10.2 µM	–	–
G-292 Clone A141B1 (osteosarcoma, adherent)	0.968	> 10.2 µM	0.963	> 10.2 µM	0.975	> 10.2 µM	–	–
Hey (ovary, adherent)	0.983	> 10.2 µM	0.726	2.68 µM	0.987	> 10.2 µM	–	–
Hs746T (stomach, adherent)	0.967	> 10.2 µM	0.947	> 10.2 µM	0.597	1.3 µM	–	–
JHOS-2 (ovary, adherent)	0.981	> 10.2 µM	0.922	> 10.2 µM	0.976	> 10.2 µM	–	–
JHOS-3 (ovary, adherent)	0.98	> 10.2 µM	0.98	> 10.2 µM	0.976	> 10.2 µM	–	–
KMS-11 (myeloma, suspension)	0.965	> 10.2 µM	0.931	> 10.2 µM	0.979	> 10.2 µM	–	–
KYAE-1 (oesophagus, suspension)	0.979	> 10.2 µM	0.933	> 10.2 µM	0.356	0.245 µM	–	–
NCC021 (kidney, adherent)	0.837	8.54 µM	0.984	> 10.2 µM	0.967	> 10.2 µM	–	–
NCI-H630 (large intestine, adherent)	0.985	> 10.2 µM	0.923	> 10.2 µM	0.941	> 10.2 µM	–	–
NCI-H650 (lung adenocarcinoma, adherent)	0.983	> 10.2 µM	0.885	> 10.2 µM	0.981	> 10.2 µM	–	–
OACM5-1 (oesophagus, semi-adherent)	0.917	> 10.2 µM	0.63	1.53 µM	0.963	> 10.2 µM	–	–

Cell Line	AUC (STF-62247)	IC50 (STF-62247)	AUC (CX-5461)	IC50 (CX-5461)	AUC (CP724714)	IC50 (CP724714)	AUC (ZSTK474)	IC50 (ZSTK474)
OACp4C (oesophagus, adherent)	0.852	> 10.2 µM	0.9	> 10.2 µM	0.892	> 10.2 µM	–	–
OC-314 (ovary, adherent)	0.985	> 10.2 µM	0.985	> 10.2 µM	0.975	> 10.2 µM	–	–
OV-7 (ovary, adherent)	0.945	> 10.2 µM	0.912	> 10.2 µM	0.957	> 10.2 µM	–	–
OV-17R (ovary, adherent)	0.943	> 10.2 µM	0.967	> 10.2 µM	0.88	> 10.2 µM	–	–
OV-56 (ovary, adherent)	0.979	> 10.2 µM	0.823	5.7 µM	0.987	> 10.2 µM	–	–
OVCA420 (ovary, adherent)	0.963	> 10.2 µM	0.97	> 10.2 µM	0.968	> 10.2 µM	–	–
OVCA433 (ovary, adherent)	0.981	> 10.2 µM	0.964	> 10.2 µM	0.974	> 10.2 µM	–	–
OVK-18 (ovary, adherent)	0.932	> 10.2 µM	0.684	2.22 µM	0.986	> 10.2 µM	–	–
PEO1 (ovary, adherent)	0.942	> 10.2 µM	0.981	> 10.2 µM	0.982	> 10.2 µM	–	–
QGP-1 (pancreas, adherent)	0.979	> 10.2 µM	0.861	> 10.2 µM	0.97	> 10.2 µM	–	–
RCC-AB (kidney, adherent)	0.838	10.2 µM	0.753	4.37 µM	0.768	5.02 µM	–	–
RCC-ER (kidney, adherent)	0.937	> 10.2 µM	0.986	> 10.2 µM	0.979	> 10.2 µM	–	–
RCC-FG2 (kidney, adherent)	0.745	3.99 µM	0.982	> 10.2 µM	0.979	> 10.2 µM	–	–
RCC-JF (kidney, adherent)	0.918	> 10.2 µM	0.809	6.16 µM	0.945	> 10.2 µM	–	–
RCC-JW (kidney, adherent)	0.96	> 10.2 µM	0.982	> 10.2 µM	0.933	> 10.2 µM	–	–
RCC-MF (kidney, adherent)	0.79	6.14 µM	0.953	> 10.2 µM	0.932	> 10.2 µM	–	–
RERF-GC-1B (stomach, adherent)	0.981	> 10.2 µM	0.85	9.19 µM	0.931	> 10.2 µM	–	–
SK-GT-4 (oesophagus, adherent)	0.979	> 10.2 µM	0.906	> 10.2 µM	0.974	> 10.2 µM	–	–
SK-MEL-5 (melanoma, adherent)	0.978	> 10.2 µM	0.983	> 10.2 µM	0.972	> 10.2 µM	–	–
UACC-257 (melanoma, adherent, top dose 5.12 µM)	–	–	–	–	–	–	0.808	3.48 µM
UACC-812 (breast, adherent, top dose 5.12 µM)	–	–	–	–	–	–	0.783	2.08 µM
UACC-893 (breast, adherent, top dose 5.12 µM)	–	–	–	–	–	–	0.681	1.23 µM
UM-UC-3 (bladder, adherent, top dose 5.12 µM)	–	–	–	–	–	–	0.616	0.653 µM
UMC-11 (lung carcinoid, adherent, top dose 5.12 µM)	–	–	–	–	–	–	0.938	> 5.12 µM

Cell Line	AUC (STF-62247)	IC50 (STF-62247)	AUC (CX-5461)	IC50 (CX-5461)	AUC (CP724714)	IC50 (CP724714)	AUC (ZSTK474)	IC50 (ZSTK474)
UWB1.289 (ovary, adherent, top dose 5.12 µM)	–	–	–	–	–	–	0.81	4.57 µM
VA-ES-BJ (soft tissue, adherent, top dose 5.12 µM)	–	–	–	–	–	–	0.956	> 5.12 µM
VAL (B-cell lymphoma, suspension, top dose 5.12 µM)	–	–	–	–	–	–	0.494	0.308 µM
VCaP (prostate, adherent, top dose 5.12 µM)	–	–	–	–	–	–	0.534	0.397 µM
VM-CUB-1 (bladder, adherent, top dose 5.12 µM)	–	–	–	–	–	–	0.966	> 5.12 µM
VMRC-MELG (melanoma, adherent, top dose 5.12 µM)	–	–	–	–	–	–	0.961	> 5.12 µM
VMRC-RCW (kidney, adherent, top dose 5.12 µM)	–	–	–	–	–	–	0.836	3.06 µM
VMRC-RCZ (kidney, adherent, top dose 5.12 µM)	–	–	–	–	–	–	0.672	1.05 µM
WIL2-NS (lymphoid neoplasm, suspension, top dose 5.12 µM)	–	–	–	–	–	–	0.364	0.146 µM
WM35 (melanoma, adherent, top dose 5.12 µM)	–	–	–	–	–	–	0.67	0.954 µM
WM278 (melanoma, adherent, top dose 5.12 µM)	–	–	–	–	–	–	0.823	3.54 µM
WM793B (melanoma, adherent, top dose 5.12 µM)	–	–	–	–	–	–	0.827	3.59 µM
WM1552C (melanoma, adherent, top dose 5.12 µM)	–	–	–	–	–	–	0.56	0.467 µM
WM-115 (melanoma, adherent, top dose 5.12 µM)	–	–	–	–	–	–	0.613	0.702 µM
WSU-DLCL2 (B-cell lymphoma, suspension, top dose 5.12 µM)	–	–	–	–	–	–	0.721	1.18 µM
WSU-NHL (lymphoid neoplasm, suspension, top dose 5.12 µM)	–	–	–	–	–	–	0.87	3.84 µM
YAPC (pancreas, adherent, top dose 5.12 µM)	–	–	–	–	–	–	0.88	> 5.12 µM
YH-13 (glioma, adherent, top dose 5.12 µM)	–	–	–	–	–	–	0.731	1.52 µM
YKG-1 (glioma, adherent, top dose 5.12 µM)	–	–	–	–	–	–	0.807	2.66 µM
YMB-1-E (breast, adherent, top dose 5.12 µM)	–	–	–	–	–	–	0.585	0.597 µM
YT (lymphoid neoplasm, suspension, top dose 5.12 µM)	–	–	–	–	–	–	0.141	0.0315 µM
huH-1 (liver, adherent, top dose 5.12 µM)	–	–	–	–	–	–	0.979	> 5.12 µM
no-10 (glioma, adherent, top dose 5.12 µM)	–	–	–	–	–	–	0.902	> 5.12 µM
no-11 (glioma, adherent, top dose 5.12 µM)	–	–	–	–	–	–	0.815	3.76 µM
